# Measured values from PubChem BioAssay AID504466 (National Center for Advancing Translational Sciences (NCATS), 2011).
# About 4,200 (1.3%) of roughly 330,000 compounds were called active. The shares of active, inactive and inconclusive entries below differ from those in the screen. Calls follow the shape of the dose curve; as a rule, active = well fitted activation curve with a large enough effect; inconclusive = small, poorly fitted or top-dose-only effect; inactive = no such curve, though single readings can be large or run the other way. A potency beside an inconclusive call is a rough fit, not a confirmed value.
# Test: qHTS screen for small molecules that induce genotoxicity in human embryonic kidney (HEK293T) cells expressing luciferase-tagged ELG1; also: nearly all actives have a fitted effect of over 60% in size; as to activity change, positive = activation: % of control where 0% means no effect
# Conditions: HEK293T ELG1-luciferase reporter, luminescence, 16 h; series mostly up to 46 µM; activity change, positive = activation: at the top concentration
# Outline: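 Genotoxicity was scored as increased ELG1-luciferase reporter signal, measured by ONE-Glo luminescence (30 min, room temperature). Compound or vehicle exposure of the HEK293T reporter cells lasted 16 hr at 37°C.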
# Potency is read from the fitted curve at half-maximal effect; tags tell the direction and shape of the fitted curve.
SMILES,"activity change, positive = activation",Potency
COc1cc(C(=O)OCc2ccc(C)cc2)cc(NC(=O)c2cccs2)c1OC,inactive: -0.505%,
Cc1ccccc1OCCCC(=O)Nc1ccc2c(c1)OCO2,,"inconclusive: 29.1 µM [activator, partial curve, poor fit]"
CC(C)(C)NC(=O)c1cccc(NC(=O)c2ccc3c(c2)C(=O)N(C(C)(C)C)C3=O)c1,inactive: 0.161%,
Nc1ccc(C(=O)OCCc2ccccc2)cc1,,"inconclusive: 16.4 µM [activator, partial curve]"
CCOC(=O)C1(Cc2ccccc2)CCCN(C(=O)C=C(C)C)C1 (stereo not given),,"inconclusive: 23.1 µM [activator, partial curve, poor fit]"
O=C1ON=C(c2ccccc2[N+](=O)[O-])/C1=C/c1cccc([N+](=O)[O-])c1O,inactive: -0.597%,
CCc1ccc(-c2cnc3ccccc3n2)cc1NC(=O)CNC(=O)c1ccccc1,,active: 3.66 µM
COc1ccc(Nc2nc(Cl)c(C=O)s2)cc1,inactive: -6.86%,
COc1ccccc1-c1nc(-c2ccc(Br)cc2)no1,,active: 3.66 µM
CCOC(=O)c1sc(NC(=O)CSc2n[nH]c(CC(C)C)n2)nc1C,inactive: 0.0442%,
Cc1ccc(C(=O)Nc2ncccc2S(=O)(=O)c2ccccc2)cc1,,"inconclusive: 4.61 µM [activator, partial curve, poor fit]"
CCCCc1ccc(NC(=O)CC(C)C)cc1,,"inconclusive: 16.4 µM [activator, partial curve, poor fit]"
Cc1ccc(-c2nc(NCc3ccco3)n(C(=O)c3ccco3)n2)cc1,,"inconclusive: 9.2 µM [activator, partial curve]"
O=C(NCCc1c[nH]c2ccccc12)c1ccc2nc[nH]c2c1,,"inconclusive: 18.3 µM [activator, partial curve]"
O=C(Nc1ccncc1)c1cc2ccccc2cc1O,,"inconclusive: 0.73 µM [activator, partial curve, poor fit]"
CCC1(C)Cc2c(sc3nc(SC)n(Cc4ccccc4)c(=O)c23)CO1 (stereo not given),,"inconclusive: 16.4 µM [activator, partial curve]"
C/C(=N\OCc1cccc(C(=O)O)c1)c1ccc(Cl)cc1,,"inconclusive: 0.058 µM [activator, full curve]"
COc1ccc(-c2nc3c(n2O)CCC/C3=N\O)cc1,,"inconclusive: 29.1 µM [activator, partial curve, poor fit]"
C=CCn1c(SCC(=O)c2cc(C)n(Cc3cccs3)c2C)nnc1-c1ccncc1,inactive: -5.79%,
Cc1cc(O)c(NC(=O)c2ccc(C)c([N+](=O)[O-])c2)cc1C,,"inconclusive: 4.11 µM [activator, partial curve]"
